Consider 25 compounds from patent US20230278972A1, “SUBSTITUTED HALOALKYL SULFONANILIDE HERBICIDES” (FMC Corporation, priority 2020, published 2023).

This test concerns sedge, umbrella (small-flower umbrella sedge, Cyperus difformis). The test can be described thus: Test B1 flooded paddy test, sedge, umbrella. As to conditions: 250 g ai/ha, Flood, applied to paddy water, 2-leaf stage, visually evaluated after 10 to 14 days. The class given is in vivo. The source says: A dash (-) response means no test result.
As to `COC1CCN(C(=O)c2cc(NS(=O)(=O)C(F)(F)F)c(C)c(C)c2C)CC1` [Compound 367], the “Plant response rating, Sedge, Umbrella (0 to 100 scale, 0 is no effect, 100 is complete control)” value is listed as 98. The value for `C#CCN(C)C(=O)c1cc(NS(=O)(=O)C(F)(F)F)c(C)c(C)c1C` [Compound 368] was 98. Take `Cc1c(C(=O)N2CCC(C)CC2)cc(N(COC(=O)C(C)(C)C)S(=O)(=O)C(F)(F)F)c(C)c1C` [Compound 369]: the “Plant response rating, Sedge, Umbrella (0 to 100 scale, 0 is no effect, 100 is complete control)” value is listed as 98. Next, `COC1CCN(C(=O)c2cc(N(COC(=O)C(C)(C)C)S(=O)(=O)C(F)(F)F)c(C)c(C)c2C)CC1` [Compound 370]: 98; `C#CCN(C)C(=O)c1cc(N(COC(=O)C(C)(C)C)S(=O)(=O)C(F)(F)F)c(C)c(C)c1C` [Compound 371]: 98; `Cc1cc(C)c(C2=NOC3OCCCC23)cc1NS(=O)(=O)C(F)(F)F` (stereo not shown) [Compound 372]: 75. As for `CCC1CC(c2cc(NS(=O)(=O)C(F)(F)F)c(C)cc2C)=NO1` (stereo not shown) [Compound 375], the “Plant response rating, Sedge, Umbrella (0 to 100 scale, 0 is no effect, 100 is complete control)” value was 70. The value for `CCC1CC(c2cc(N(COC(=O)C(C)(C)C)S(=O)(=O)C(F)(F)F)c(C)cc2C)=NO1` (stereo not shown) [Compound 376] was 95; that for `Cc1ccc(C2=NOC3CCCC23)cc1NS(=O)(=O)C(F)(F)F` (stereo not shown) [Compound 377] was 0; that for `CCc1cc(C)c(N(COC(=O)C(C)(C)C)S(=O)(=O)C(F)(F)F)cc1C1=NOC2CCCC12` (stereo not shown) [Compound 378] was 80. Next, `CCOC(=O)N(c1cc(C2=NOC3CCCC23)c(CC)cc1C)S(=O)(=O)C(F)(F)F` (stereo not shown) [Compound 379]: 80.

With `Cc1c(NS(=O)(=O)C(F)(F)F)cc(C2=NOC3(CCCC3)C2)c(C)c1C` [Compound 380], the “Plant response rating, Sedge, Umbrella (0 to 100 scale, 0 is no effect, 100 is complete control)” value came to 90.

On to `Cc1cc(C)c(C2=NOC(C(C)C)C2)cc1NS(=O)(=O)C(F)(F)F` (stereo not shown) [Compound 381], for which the “Plant response rating, Sedge, Umbrella (0 to 100 scale, 0 is no effect, 100 is complete control)” value is listed as 85. With `Cc1c(C2=NOC3(CCCC3)C2)cc(N(COC(=O)C(C)(C)C)S(=O)(=O)C(F)(F)F)c(C)c1C` [Compound 382], the “Plant response rating, Sedge, Umbrella (0 to 100 scale, 0 is no effect, 100 is complete control)” value is 90. The value for `Cc1cc(C)c(N(COC(=O)C(C)(C)C)S(=O)(=O)C(F)(F)F)cc1C1=NOC(C(C)C)C1` (stereo not shown) [Compound 383] was 75.

For the compound `Cc1cc(C)c(N2CC3(CCCCC3)CC2=O)cc1NS(=O)(=O)C(F)(F)F` [Compound 392], the “Plant response rating, Sedge, Umbrella (0 to 100 scale, 0 is no effect, 100 is complete control)” value turned out to be 20. Next, `Cc1cc(Cl)c(NS(=O)(=O)C(F)(F)F)cc1N1CCC2(CCCCC2)C1=O` [Compound 393]: 95; `Cc1cc(Cl)c(NS(=O)(=O)C(F)(F)F)cc1N1CC2(CCCCC2)OC1=O` [Compound 394]: 85; `Cc1cc(C)c(N(COC(=O)C(C)(C)C)S(=O)(=O)C(F)(F)F)cc1N1CCC2(CCC(F)(F)CC2)C1=O` [Compound 397]: 98. Next, `COC1CCC2(CC1)CCN(c1cc(NS(=O)(=O)C(F)(F)F)c(C)cc1C)C2=O` (stereo not shown) [Compound 398]: 90; `Cc1cc(C)c(N(S(=O)(=O)C(F)(F)F)S(=O)(=O)C(F)(F)F)cc1N1CCC2(CCC(C(F)(F)F)CC2)C1=O` (stereo not shown) [Compound 399]: 85; `Cc1cc(C)c(N2CCC3(CCC(C(F)(F)F)CC3)C2=O)cc1NS(=O)(=O)C(F)(F)F` (stereo not shown) [Compound 400]: 95. Next, `Cc1cc(C)c(N(COC(=O)C(C)(C)C)S(=O)(=O)C(F)(F)F)cc1N1CCC2(CCC(C)CC2)C1=O` (stereo not shown) [Compound 401]: 95; `Cc1cc(C)c(N2CCC3(CCC(C)CC3)C2=O)cc1NS(=O)(=O)C(F)(F)F` (stereo not shown) [Compound 402]: 85. Consider `Cc1cc(C)c(N(COC(=O)C(C)(C)C)S(=O)(=O)C(F)(F)F)cc1N1CCC2(CCC(C(F)(F)F)CC2)C1=O` (stereo not shown) [Compound 403], for which the “Plant response rating, Sedge, Umbrella (0 to 100 scale, 0 is no effect, 100 is complete control)” value amounted to 20.
